# PubChem BioAssay AID1347165 (National Center for Advancing Translational Sciences (NCATS), 2019)
# The whole screen tested about 220,000 compounds, of which about 5,700 (2.6%) were called active. This list was built around the results that the source calls inconclusive (neither active nor inactive); the mix of calls is not that of the screen. The call rests on the fitted dose curve; in most records, active means well fitted inhibition curve with a large enough effect; inconclusive means small, poorly fitted or top-dose-only effect; inactive means no such curve, though single readings can be large or run the other way. Where the call is inconclusive, the potency comes from a doubtful curve fit.
# Molecular target: Lysine-specific demethylase 5B (Homo sapiens) (UniProt Q9UGL1)
# Test: Primary screen for KDM5B Histone Demethylases FDH-coupled qHTS; further: nearly all actives have a fitted effect of over 70% in size; on activity change, negative = inhibition: 0% is about no effect
# Conditions: FDH-coupled NADH fluorescence (FDH is formaldehyde dehydrogenase); activity change, negative = inhibition: at 57.7 µM (top of the series) unless noted
# In short: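 Here, H3K4me3 peptide (12.5 µM in substrate mix) is demethylated by KDM5BΔAP, 200 nM final, after 10 min compound exposure. Formaldehyde product is coupled through FDH (0.25 U/mL in mix) to NADH fluorescence; 30-min ΔRFU feeds dose-response curves.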
# Potency means the concentration at half of the fitted maximal effect; tags describe the fitted curve by direction and shape.
# Chain of UniProt Q9UGL1 (Q9UGL1 whole entry, looked up): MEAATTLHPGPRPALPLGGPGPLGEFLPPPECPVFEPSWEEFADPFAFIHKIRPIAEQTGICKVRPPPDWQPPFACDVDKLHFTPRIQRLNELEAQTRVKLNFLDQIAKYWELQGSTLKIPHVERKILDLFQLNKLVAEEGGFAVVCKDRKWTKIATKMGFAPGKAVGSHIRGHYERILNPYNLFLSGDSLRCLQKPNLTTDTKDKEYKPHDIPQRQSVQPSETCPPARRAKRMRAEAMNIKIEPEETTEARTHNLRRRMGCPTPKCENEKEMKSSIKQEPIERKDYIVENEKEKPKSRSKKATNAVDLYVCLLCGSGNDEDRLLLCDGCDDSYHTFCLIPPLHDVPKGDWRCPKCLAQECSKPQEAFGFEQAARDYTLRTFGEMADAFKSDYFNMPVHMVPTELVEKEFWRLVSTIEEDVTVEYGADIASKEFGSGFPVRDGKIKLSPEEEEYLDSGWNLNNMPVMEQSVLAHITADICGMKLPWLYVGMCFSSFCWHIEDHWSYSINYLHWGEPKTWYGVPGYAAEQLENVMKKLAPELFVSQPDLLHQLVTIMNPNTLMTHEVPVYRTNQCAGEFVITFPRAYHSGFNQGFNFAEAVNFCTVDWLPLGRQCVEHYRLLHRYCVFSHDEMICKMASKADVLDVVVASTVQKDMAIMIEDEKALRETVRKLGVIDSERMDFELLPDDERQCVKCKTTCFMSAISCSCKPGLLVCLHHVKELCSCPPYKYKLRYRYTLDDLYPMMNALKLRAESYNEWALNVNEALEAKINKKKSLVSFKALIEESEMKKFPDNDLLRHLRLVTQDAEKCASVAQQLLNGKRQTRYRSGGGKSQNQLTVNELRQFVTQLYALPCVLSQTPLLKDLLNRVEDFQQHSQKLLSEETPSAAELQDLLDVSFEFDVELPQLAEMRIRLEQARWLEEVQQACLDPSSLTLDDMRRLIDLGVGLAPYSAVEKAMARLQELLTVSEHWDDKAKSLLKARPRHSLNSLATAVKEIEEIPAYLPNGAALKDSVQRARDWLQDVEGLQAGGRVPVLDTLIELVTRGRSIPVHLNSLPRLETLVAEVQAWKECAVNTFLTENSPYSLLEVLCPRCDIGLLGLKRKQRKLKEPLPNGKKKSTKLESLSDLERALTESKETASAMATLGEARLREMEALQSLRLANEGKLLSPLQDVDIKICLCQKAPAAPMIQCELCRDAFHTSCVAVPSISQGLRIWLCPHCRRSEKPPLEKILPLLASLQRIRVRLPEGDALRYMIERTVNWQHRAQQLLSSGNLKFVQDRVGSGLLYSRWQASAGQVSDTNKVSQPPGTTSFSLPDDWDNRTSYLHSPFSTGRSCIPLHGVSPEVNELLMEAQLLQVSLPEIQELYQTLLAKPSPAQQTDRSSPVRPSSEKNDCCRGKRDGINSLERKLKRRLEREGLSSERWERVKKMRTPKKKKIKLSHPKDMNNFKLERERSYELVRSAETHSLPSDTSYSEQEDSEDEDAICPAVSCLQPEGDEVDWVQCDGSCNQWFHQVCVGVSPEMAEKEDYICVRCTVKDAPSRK
Structure (SMILES),"activity change, negative = inhibition",Potency
CCCc1ccc(OC(C)c2nc(-c3ccc(-n4cccc4)cc3)no2)cc1 (stereo unspecified),inconclusive: -37.5% [inhibitor],
COCCN1CCCCCC(O)c2cc(C(=O)N(C)Cc3ccc(N4CCCCC4)cc3)ccc21 (stereo unspecified),,active: 7.94 µM
CNc1nc2c(c(C(=O)N3CCCC3)n1)CN(C(=O)Cn1nccc1C)CC2,,active: 22.4 µM
CN(C)C(=O)C(Sc1nc2ccccc2o1)c1ccccc1 (stereo unspecified),inactive: 2.72%,
COc1ccc(-c2cc3ccc(O)c(CN4CCCCC4C)c3oc2=O)cc1OC (stereo unspecified),,"inconclusive: 25.1 µM [inhibitor, partial curve, poor fit]"
COCCn1cc2c3c(cccc31)CN(C(=O)COc1cccc(C)c1)CC2,,active: 31.6 µM
Cc1ccc(Cn2cc(S(=O)(=O)c3ccc(Cl)cc3)c(=O)c3cc4c(cc32)OCO4)cc1,inactive: -30.4%,
COCc1noc(CC2CCOC3(CCN(C(=O)c4cccc5[nH]ccc45)CC3)C2)n1 (stereo unspecified),,"inconclusive: 35.5 µM [inhibitor, partial curve, poor fit]"
CCCn1cc2c3c(cccc31)CN(C(=O)c1ccc(OC)cc1)CC2,,"inconclusive: 31.6 µM [inhibitor, partial curve, poor fit]"
CCn1nccc1C(=O)N1CCCC2(C1)Nc1cccnc1NC2=NCc1ccccc1 (stereo unspecified),,"inconclusive: 31.6 µM [inhibitor, partial curve, poor fit]"
COCc1cc(CNC(=O)CC2C(=O)NCCN2Cc2ccccc2)[nH]n1 (stereo unspecified),,"inconclusive: 12.6 µM [inhibitor, partial curve, poor fit]"
N#Cc1c(NCCO)nc(-c2ccco2)c2c1CCCC2,,"inconclusive: 20 µM [inhibitor, partial curve, poor fit]"
O=C(CN1CCN(Cc2cccc3cccnc23)CC1)NC1CC1,inactive: -27%,
CC(=O)NC1(C)CCN(Cc2ccc(Nc3ccccc3)cc2)C1 (stereo unspecified),,"inconclusive: 35.5 µM [inhibitor, partial curve, poor fit]"
CCn1c(NC(=O)CCc2nc(-c3ccsc3)no2)nc2ccccc21,inactive: 11.3%,
Cc1ccccc1-c1noc(-c2cc3c(COC(=O)C(C)C)cnc(C)c3oc2=O)n1,inactive: -6.01%,
O=C(C1CCCN(c2nc3ncccc3o2)C1)N1CCN(Cc2ccccc2)CC1 (stereo unspecified),,"inconclusive: 11.2 µM [inhibitor, partial curve]"
CCN(C(=O)Cn1c(=O)n(Cc2ccc3c(c2)OCO3)c(=O)c2ccc(C(=O)NC3CCCCC3)cc21)c1cccc(C)c1,,"inconclusive: 15.8 µM [inhibitor, partial curve, poor fit]"
C(=C1CC(=Cn2c3ccccc3c3ccccc32)C1)n1c2ccccc2c2ccccc21,,"inconclusive: 25.1 µM [inhibitor, partial curve, poor fit]"
O=C(NNC(=O)c1cc2ccccc2cc1O)c1cccs1,,"inconclusive: 35.5 µM [inhibitor, partial curve, poor fit]"
COc1ccc(OCc2ccc(-c3nc(C#N)c(NCc4cccnc4)o3)o2)cc1,,"inconclusive: 31.6 µM [inhibitor, partial curve, poor fit]"

Structure (SMILES),"activity change, negative = inhibition",Potency
CCOC(=O)c1cc(S(=O)(=O)NCc2ccc(OC)cc2)[nH]n1,,"inconclusive: 14.1 µM [inhibitor, partial curve, poor fit]"
CCc1cc(=O)oc2cc(OCC(=O)NCc3ccncc3)ccc12,,"inconclusive: 39.8 µM [inhibitor, single point]"
O=C(c1ccc(Oc2ccccc2)cc1)N1CCNc2cnc(Nc3cccnc3)nc2C1,,"inconclusive: 25.1 µM [inhibitor, partial curve, poor fit]"
COc1cc(/C=N/Nc2nncn2N)ccc1OCc1c(C)no[n+]1[O-],,"inconclusive: 17.8 µM [inhibitor, partial curve, poor fit]"
O=C(Nc1ccc(N2CCOCC2)c(C(=O)O)c1)c1ccc(Br)cc1,,"inconclusive: 28.2 µM [inhibitor, single point]"
CCOC(=O)C1=C(C)N=c2s/c(=C\c3cccc(OCC(=O)O)c3)c(=O)n2C1c1ccccc1OC (stereo unspecified),,"inconclusive: 39.8 µM [inhibitor, single point]"
Cc1ccc(C2=CC(c3ccc(F)cc3)n3nnnc3N2)cc1 (stereo unspecified),inactive: -29.5%,
CC1=C[C@@H](CN2C(=O)c3ccccc3C2=O)[C@H](C(C)C)C[C@H]1Cc1nc2ccccc2[nH]1,,"inconclusive: 35.5 µM [inhibitor, single point]"
CN1C(=O)CCC2(CNC(=O)c3ccncc3)CCC=C12 (stereo unspecified),,"inconclusive: 28.2 µM [inhibitor, partial curve, poor fit]"
NC(=S)N/N=C/c1cccc(Cl)c1Cl,,"inconclusive: 2.51 µM [inhibitor, full curve, poor fit]"
Cc1ccc(OCc2ccc(-c3nc(C#N)c(NC4CC4)o3)o2)cc1C,,"inconclusive: 25.1 µM [inhibitor, partial curve, poor fit]"
CC1(C)CNC(=O)c2nc(C3(CN4CCCC4)CC3)[nH]c2C1,,"inconclusive: 14.1 µM [inhibitor, partial curve]"
Cc1ccc2nc3c(cc(C(=O)NCc4ccco4)c(=N)n3C(C)C)c(=O)n2c1,,"inconclusive: 2.51 µM [inhibitor, partial curve, poor fit]"
FC(F)c1n[nH]c(C(F)F)c1Cl,inactive: 4.12%,
CN1CCN(CC(O)COC(c2ccc(Cl)cc2)c2ccc(Cl)cc2)CC1 (stereo unspecified),,"inconclusive: 39.8 µM [inhibitor, single point]"
S=c1[nH]ccc2ccccc12,,"inconclusive: 28.2 µM [inhibitor, single point]"
CC(C)(C)c1nc(CN2CCC(c3nc4ccccc4s3)CC2)no1,,"inconclusive: 39.8 µM [inhibitor, single point]"
COc1ncccc1N1CC2(COCC(=O)N(Cc3cccc(OC(F)(F)F)c3)C2)C1,,active: 7.08 µM
CCCNC(=O)C1(CCO)CCN(c2ncccn2)C1 (stereo unspecified),,"inconclusive: 31.6 µM [inhibitor, partial curve, poor fit]"
COc1ccc(OCC(=O)NC(Cc2c[nH]c3ccccc23)C(=O)O)cc1 (stereo unspecified),,"inconclusive: 44.7 µM [inhibitor, single point]"
